Measurements: PubChem BioAssay AID759 (NMMLSC, 2007)
The campaign covered roughly 190,000 compounds. About 270 (0.14%) were called active. The shares of active, inactive and inconclusive entries below differ from those in the screen.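 How the source made its calls: active means GTP binding activity at least 20% away from the 100% baseline, either lowered as inhibitor or raised as activator; inconclusive means flagged as likely green fluorescent, judged across all proteins in the well; inactive means the rest.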

What follows are molecules tested against GTPase HRas (Homo sapiens) (UniProt P01112) (assay: HRas wt fluorescent GTP binding changes, either direction – biochemical, wildtype, bead-based flow cytometry, multiplex, primary screen (AID 759;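 further: 0% = unlabeled GTP competition control and 100% = no-compound control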)). Settings: GST-Ras wt beads, Bodipy-FL-GTP binding, at 10 µM, actives lie on both sides.
UniProt P01112, sequence (P01112 whole entry, looked up): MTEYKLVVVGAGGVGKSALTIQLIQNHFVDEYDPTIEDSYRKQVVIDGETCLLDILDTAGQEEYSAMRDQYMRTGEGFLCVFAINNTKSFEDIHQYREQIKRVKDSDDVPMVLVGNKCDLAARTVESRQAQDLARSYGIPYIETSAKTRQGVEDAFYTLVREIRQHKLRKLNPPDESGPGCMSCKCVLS

GTP binding activity, active:
Nc1c([N+](=O)[O-])cc(-c2cnc[nH]2)cc1[N+](=O)[O-] 78%
O=C(Nc1ccc2nc(-c3cccs3)[nH]c2c1)c1cccs1 75%
O=C(O)C1=C[C@H](c2ccc(Br)cc2)C[C@H](OCc2ccc(CO)cc2)O1 78%

GTP binding activity, inactive:
Cc1nn(C)c(Cl)c1CN1CCN(C2CCCC2)C(CCO)C1 (stereo not drawn) 95%
COC(=O)CC1C(=O)NCCN1Cc1cn(-c2ccc(C)cc2)nc1-c1cccc(C)c1 (stereo not drawn) 94%
COc1c(F)c(F)c(C(=O)O)c(Nc2ccccc2C)c1F 98%
COc1ccc(C2NC(=S)NC3=C2CCc2cc(OC)ccc23)cc1 (stereo not drawn) 97%
COc1ccc(CNC(=O)CN(Cc2ccc(OC)cc2)C(=O)c2csnn2)cc1 98%
CCN(CC(=O)Nc1c(F)cccc1F)C(=O)COc1ccc2c(C)cc(=O)oc2c1 98%
COc1ccc2c(C)nc(N/C(N)=N/S(=O)(=O)c3ccc(C)cc3)nc2c1 88%
C/C(=N/NC(=O)c1ccco1)c1cccnc1 100%
CCN1CCCc2cc(CN(CCN3CCOCC3)C(=S)Nc3cccc(Cl)c3)ccc21 100%
COCC(C)NCc1ccc(OC)c(Br)c1 (stereo not drawn) 101%
O=C(O)c1ccc(Nc2nc(-c3cc4ccccc4oc3=O)cs2)cc1O 87%
O=C(CNCc1ccc(Cl)cc1)Nc1cccc(C(=O)O)c1 95%
Cn1c(=O)c2c(nc(N3CCc4ccccc4C3)n2C)n(C)c1=O 81%
CS(=O)(=O)Nc1ccc(C2=NN(C(=O)c3ccco3)C(c3ccccc3F)C2)cc1 (stereo not drawn) 95%
O=C(c1cc(-c2ccccc2)n[nH]1)N1CCc2c([nH]c3ccccc23)C1c1ccccn1 (stereo not drawn) 98%
Cc1cc(C)n2nc(SCC(=O)Nc3ccccc3)nc2n1 96%

GTP binding activity, inconclusive:
CC(NC(=O)C(=O)N/N=C/c1ccccc1)c1ccccc1 (stereo not drawn) 106%
COc1ccccc1C(C)NCC(=O)NCC(=O)Nc1ccc(F)c(F)c1F (stereo not drawn) 95%
CCCC1=NN2C(=N)/C(=C\c3cc(C)n(-c4cc(C)cc(C)c4)c3C)C(=O)N=C2S1 83%
CN1C(=O)C2(N=c3ccccc3=N2)c2ccccc21 97%
CCN(CC)S(=O)(=O)c1cccc(C(=O)N2CCCCC2)c1 91%
c1ccc(-c2nc3nc4ccccc4nc3n2Cc2ccco2)cc1 103%
Cc1ccsc1/C=C(\C#N)C(=O)NCc1ccco1 101%
CC(NC(=O)COC(=O)CSCc1ccccc1)c1ccccc1 (stereo not drawn) 97%
COc1ccc(OCC(=O)NNc2c3ccccc3nc3ccccc23)cc1 94%
CCN(CC)S(=O)(=O)c1ccc(C)c(NC(=O)Cn2cnc3cc([N+](=O)[O-])ccc3c2=O)c1 85%
C=C(C)Cn1c(SCC(=O)N/N=C/c2c(O)ccc3ccccc23)nc2ccccc2c1=O 94%
CC(=O)Nc1c(Nc2ccccc2)c2ccccc2oc1=O 93%
COc1ccc(C(=O)OCC(=O)c2c(N)n(C)c(=O)n(C)c2=O)cc1OC 92%
O=C(COC(=O)c1n[nH]c2ccccc12)NCc1ccccc1 103%
CCCCN(C(=S)NC(=O)c1ccccc1)c1c(N)n(Cc2ccccc2)c(=O)[nH]c1=O 95%
O=c1/c(=C/c2ccc(O)c([N+](=O)[O-])c2)sc2nc3ccccc3n12 90%
COc1ccccc1CNC(=O)c1csc2c1CCCC2 95%
CC1CC(C)CN(CC(O)COc2ccc3c(c2)CCC3)C1 (stereo not drawn) 102%
CC(C)OC(=O)NCCOC(=O)Nc1cccc(Cl)c1 108%
CN(Cc1ccccc1)C(=O)Cn1c(=O)oc2cc(S(=O)(=O)NCc3ccccc3)ccc21 101%
CC1CCCN(CCCNC(=O)CCn2nc(-c3ccccc3)ccc2=O)C1 (stereo not drawn) 103%
CCOc1cc(C)c(S(=O)(=O)Nc2ccc3cn[nH]c3c2)cc1C 107%
CC(=O)Nc1ccc(C(=O)NNC(=O)c2cc([N+](=O)[O-])cc([N+](=O)[O-])c2)cc1 95%
CN1c2ccccc2C(C)(C)C12CC(c1ccc(S(=O)(=O)N3CCCCC3)cc1)=NO2 (stereo not drawn) 98%
CCOC(=O)C1CCN(c2cc(C)nc3cc(-c4cccc(F)c4)nn23)CC1 89%
O=C(Nn1cnc2ccccc2c1=O)c1ccc(F)cc1Cl 95%
Cc1ccc(CN2CCN(CC(=O)NCc3ccc(Cl)cc3)C2=O)cc1 103%
C[C@@H]1C[C@H](O)c2cc(Cl)ccc2N1 104%
COCCNS(=O)(=O)c1cc(C)c(C)cc1C 97%
O=c1nc2n(c3c1oc1ccccc13)Cc1ccccc1-2 93%
COc1ccc(S(=O)(=O)N(CCCN2CCCC2=O)Cc2cc3c(C)ccc(C)c3[nH]c2=O)cc1 94%
Cc1nnc(SCC(=O)Nc2nc(-c3ccc(F)cc3)cs2)[nH]c1=O 88%
CCNS(=O)(=O)c1ccc(CCC(=O)NCc2ccc(C)cc2)cc1 97%
N#C/C(=C(/O)CN1CCOCC1)c1nc(-c2ccccc2)cs1 106%
Cc1ccc[n+](CC(=O)Nc2cccc([N+](=O)[O-])c2)c1 94%
Cc1ccc2cc3cc(C(=O)N4CCN(Cc5ccccc5)CC4)sc3nc2c1 159%
Cn1nc(-c2ccc(Cl)cc2)c2cc(C(=O)NC3CC3)sc21 93%
O=C(/C=C/c1ccccc1)NC(NC(=S)Nc1ccc(Cl)cc1)C(Cl)(Cl)Cl (stereo not drawn) 95%
CC(Oc1ccccc1)C(=O)Nc1oc(-c2ccco2)c(-c2ccco2)c1C#N (stereo not drawn) 94%
